Data as given in the supplement of paper PMC11417369.
The other results are listed elsewhere or left out.

The sequences below were run on PfHDP1 homeodomain (GST-tagged) (assay: gcPBM binding intensity (ln(normalized median fluorescence intensity)); higher = stronger DNA binding).
Outline: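 DNA-binding domains from P. falciparum, fused to GST and produced in E. coli, were put on an Agilent 4 × 180k double-stranded probe array for 1 h in 1× PBS holding 1% milk, 0.2 mg/ml BSA, 0.5% salmon testes DNA and 0.03% Triton X-100. Probes were primer-extended, 36 bp long and drawn from intergenic genomic regions, with negative controls included. After Alexa488 anti-GST antibody detection and a 488 nm scan, binding intensity was set as the highest Masliner-normalised natural-log median intensity across replicate spots of either probe orientation.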

Sequence | gcPBM binding intensity (ln)
TATAAACATAAATATACACACAAACATATAGGTATT [CACACA_site6690] | 6.59
ATATAATAATATTAAAGTACATGCATATATATTTAT [XGTACX_site7422] | 6.46
TAATATAACAAAAAAATAAAATAAAATAAAAAATAA [CACACA_negctrl_site109] | 6.39
ACTATTTAAATGCAAAGTACTTTGATAATAAACAAT [XGTACX_site2608] | 7.25
CATAATATCTCTTTGTGTACATATAGTTATTATTAT [XGTACX_site7688] | 6.56
ATTTTTTAAAAAAACATACACACAAAAAAAAAAAAA [CACACA_site3936] | 6.29
ATTATTATATATAAAACACACAATTTTGTTTTCACA [CACACA_site3965] | 6.59
CTGGAGTTAAAAATGTGTACCTAAAAAATTTTGTTC [XGTACX_site5554] | 6.38
GTATAAAAAAATATATGTACTTATTTACATATATAT [XGTACX_site4744] | 6.2
TGAAATGATATATAAACACACATATATATATATATA [CACACA_site3511] | 9.38
ATTTTTAATGTGATCACACATAAATATTATATATAT [CACACA_site5641] | 6.78
ATATTATAATTGAAGGTGCAAAATGTAATATAGATA [GTGCAC_site9661] | 9.76
ATTCATTTTTTGGGGGGTACACCCTTTTAAACATTT [XGTACX_site4797] | 7.88
ATTATTATTTAAAAAAGTACATTGAAGTTCATAATA [XGTACX_site3575] | 6.43
ATCCACAAAATAGGATGTACATATAAAATAAATAAA [XGTACX_site5362] | 6.48
TATGGAATAATACGCGTACACACATATATATATTAA [CACACA_site132] | 6.75
TTATAAATTTAAAGTAGTACTATACTACTATTTTAT [XGTACX_site3038] | 6.09
CATTTTTTATAATAATGTACATGTATTAAAAAAAAA [XGTACX_site6390] | 6.2
TTTATAAGAATTACTAGTACATATAAGGAATTATAT [XGTACX_site3953] | 6.08
GCACACACAAAAAAAGCATGCATACTAGCTATTTTT [TGCATGCA_site18] | 6.35
TATTTTTTTCATAACAGTACAATAATATATATTTTT [XGTACX_site5739] | 6.6
TTTTTTACAAATGATATCATTTCTTTAAATATTAAA [TGCATGCA_negctrl_site279] | 6.76

Sequence | gcPBM binding intensity (ln)
CTATAAATGAATGTTTGTACTTAATAATAAAAGAAA [XGTACX_site3170] | 6.61
AATGAAATAAATAAGGGTACACATAAATATATATAT [XGTACX_site7006] | 8.42
AAAAAACACCCATACACACACACACCGATATATATA [CACACA_site5808] | 6.94
TATTCGTGCAATAATAGTACACTTATAAATTATTCA [XGTACX_site8993] | 10.3
AATCAAAAAAAATGTTGTACGCCTAATTATAATTAA [XGTACX_site8906] | 6.59
AATGGGGAAGGTTCTACACACAACGCAAATGCCTTA [CACACA_site2758] | 6.41
AAATTATTATGTATTTGTACACATAAGAATATAAAA [XGTACX_site6841] | 6.32
TATAAATAATGTTAAACACACATACCGATATATAAT [CACACA_site5499] | 6.64
TCAGTTAATGTATATGTACACACGGTGAGTATATAT [CACACA_site3346] | 6.74
AGAGAAAGAAAGAAATGTACAAATACCTACACACAT [XGTACX_site3140] | 6.96
TTTTTTATATATGTGTGTGTGTGTGTGTCAAGTTTA [GTGCAC_negctrl_site460] | 7.06
ATAACATAATAGCAACAATTTATTTCCTCTATAACA [CACACA_negctrl_site243] | 6.37
TTTGGGATATTTACAGTGCAAAGATATTTTTATAAT | 8.48
ATATTTTTGTTCAGGAGTACAGTTCAAGATGAAAAT [XGTACX_site4178] | 6.52
ATTCTATATATATAAACACACAAATATTTTTATATA [CACACA_site1677] | 6.58
TTTTAGTGAAATGAGTGTACATTATATATTTTTTTT [XGTACX_site4892] | 6.23
ATATAAGGAAGGGATGCACACAAAAGGGTACATAAG [CACACA_site9328] | 7.48
AAGACTAATCTAGGTAGTACTTATATATCTTTATTT [XGTACX_site4572] | 6.08
TATATATCAAAAATATGTACACAGAAATATATATTA [XGTACX_site6997] | 6.96
ACATATAAAATATATACACACATATAAATACATTAA [CACACA_site3867] | 6.24
TTGCAATAATGTTGCACACTAAATAGTCATATATAA [CACACA_site263] | 9.77
ATATAATATTACAAATGTACTTTAAAAAATTAGGAG [XGTACX_site3897] | 6.59
